The structures appear in SMILES notation. The campaign covered roughly 48,000 compounds. About 1,200 (2.5%) were called active. Roughly 2% stayed inconclusive and do not appear here.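 The calls were made as follows: active = activation of at least 60% and not above a set upper limit (about 1 call in 100 departs from these limits); inconclusive = activation of 40% to 60%, or above that upper limit; inactive = activation under 40%.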 This is one part of the list.

Sequence of UniProt O75388 (O75388 whole entry, looked up): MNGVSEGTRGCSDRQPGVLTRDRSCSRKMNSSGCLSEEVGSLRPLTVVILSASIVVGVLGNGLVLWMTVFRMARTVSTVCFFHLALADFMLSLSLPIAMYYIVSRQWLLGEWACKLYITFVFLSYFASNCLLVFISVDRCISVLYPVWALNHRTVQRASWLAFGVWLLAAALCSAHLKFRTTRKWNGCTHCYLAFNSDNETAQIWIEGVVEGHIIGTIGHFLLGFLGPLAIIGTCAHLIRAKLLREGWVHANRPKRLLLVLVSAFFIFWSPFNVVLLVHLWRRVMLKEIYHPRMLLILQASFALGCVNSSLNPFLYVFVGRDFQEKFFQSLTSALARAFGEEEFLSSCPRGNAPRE

In this test the target is Probable G-protein coupled receptor 32 (Homo sapiens) (UniProt O75388). The experiment in a line: qHTS for Agonists of Human Resolvin D1 Receptor DRV1. Conditions: CHO-K1 GPR32 beta-arrestin PathHunter luminescence, 90 min; at 76.9 µM; active compounds read high; zero percent set by DMSO-only wells. The source says:
Endogenous resolution of inflammation is known to be transduced through various GPCRs and their natural mediators of lipid nature. Resolvin D1 (RvD1) is one of the active players in resolution of acute inflammation through regulation of anti-inflammatory pathways; it is known to enhance phagocytosis of human macrophages, limits neutrophils infiltration, etc. […] The search for GPR32-activating small molecules with anti-inflammatory effects similar to its natural omega-3 derivative ligand in order to use them as research tools for further studies of inflammation and its resolution was the goal of this screening project. For primary screening assay, we used CHO-K1 GPR32 beta-arrestin cell line (DiscoveRx, #93-0321C2A) and the PathHunter(R) beta-Arrestin Assay (DiscoveRx) which measures recruitment of beta-arrestin to the GPR32 and generates chemiluminescent signal. These engineered cells stably transfected with GPR32 co-express GPR32-fused small 42-amino acid fragment of beta-Gal called ProLinktrade mark, and […] -tagged beta-Arrestin fusion protein. When GPR32 is activated by a ligand, it stimulates binding of beta -Arrestin to ProLink-tagged GPR32, and two parts of beta-Gal complement forming a functional enzyme. Upon substrate (PathHunter(R) Detection reagent) addition, beta-Gal hydrolyzes it and generates a chemiluminescent signal.
The cells were thawed and plated in thawing media containing F-12 HAM (Invitrogen, #11765-054), 10% FBS (Invitrogen, #10082), 1x Glutamine, and 1x Pen/Strep onto the 175-mm flask for 24 hours. Then, thawing media was replaced with Growth media which contains 800microg/mL Geneticin (Invitrogen, #10131) and 300microg/mL Hygromycin B (Invitrogen, #10687) in addition to described above. For the assay, the cells were harvested at ~80% confluent stage with Cell Dissociation buffer (Gibco, #13151), and seeded at 2,500 cells/ 3microL/well in assay media (PathHunter(R) Cell Plating Reagent, DiscoverX, #93-0563R1B) using MultiDrop Combi dispenser (Thermo Scientific, Logan, UT) onto white solid bottom tissue culture-treated 1536-well plates (Greiner # 789173-F) and allowed to attach overnight at 37 degrees C, 95% humidity, 5% CO2, . Next, 23nL/well of compound solutions in DMSO were added with a Pin Tool (Kalypsis, San Diego, CA) to the assay plates. As the basal control (EC0), 23 nL/well of DMSO was used on each plate. The cells were incubated in the presence of compounds or DMSO for 90 minutes at 37 degrees C, 5% CO2. Subsequently, 1.5microL/well of PathHunter(R) Detection Reagent prepared per the manufacturer's instructions was added to the assay plates with BioRAPTR FRDtrade mark dispenser (Beckman Coulter, San Francisco, CA) and incubated for 1 hour at ambient temperature prior to the measurement of the luminescent signal on ViewLux(R) uHTS Microplate Imager (Perkin Elmer, Waltham, MA).
A general note: Quantitative high-throughput screening tests each substance at several concentrations.
On to `Cc1ccccc1-c1ncnn1-c1sc2c(c1C#N)CCCCC2`, for which the activation was active: 106%. As to `COc1ccc(CNC(=O)c2cc3cc(C)ccc3n2C)cc1`, the activation was inactive: 15.4%.

For `O=C(CN1CCNCC1)NC1CCCCC1`, the activation is inactive: -24.3%. As for `CC(=O)NCCNC(=O)CCCc1nnc2n(C)c(=O)c3sccc3n12`, the activation is inactive: 7.85%. For `Cc1sc2c(c1C)c(=O)n(CCc1ccccc1)c(=O)n2Cc1cccc(F)c1`, the activation is inactive: -8.22%. On to `CCCCN(CCCC)C(=O)CN(C)S(=O)(=O)c1ccc2c(c1)c(=O)n(C)c(=O)n2C`, for which the activation is inactive: 15.6%. For the compound `CC(Nc1ccc(-c2nc(-c3ccncc3)no2)cc1[N+](=O)[O-])c1ccccc1` (stereo not given), the activation is inactive: 16.6%. Turning to `O=C(NCc1ccccc1Br)c1ccc2nc(N3CCCCC3)sc2c1`, the activation was inactive: 2.8%. Regarding `O=C(Nc1cc(F)ccc1F)C1CCN(c2nc3ccccc3n3cccc23)CC1`, the activation is inactive: -1.23%.

Turning to `Cc1ccc(-n2c(=O)c3c(c4cc(C)ccc4n3C)n(CC(=O)NCc3ccccc3Cl)c2=O)cc1`, the activation was inactive: -4.07%. Take `CCCCOC(=O)c1ccc(Nc2ncnc3[nH]ncc23)cc1`: the activation was inactive: 32.3%. Turning to `COc1ccc2oc(=O)cc(CN3CCN(c4ccc(F)cc4)CC3)c2c1`, the activation was inactive: -18.3%. With `CCCCNC(=O)C(CC)Sc1nnc(-c2cccc(F)c2)c(-c2cccc(F)c2)n1` (stereo not given) the figure was inactive: -17.8%. For `COc1ccc(CCC(=O)NC2CC(=O)N(c3ccc(C)cc3)C2)cc1` (stereo not given), the activation was inactive: -0.565%. Next, `CCOC(=O)c1ccc(CN(Cc2ccccc2)S(=O)(=O)c2ccc(C)cc2)cc1`: inactive: -26.2%. Regarding `Cc1nc2c(C(=O)NCCc3ccc(Cl)cc3)cnn2c(C)c1Cc1c(F)cccc1Cl`, the activation was inactive: -11.2%. With `CCOC(=O)c1ccc(NC(=O)CN(c2ccc(C)cc2)S(=O)(=O)c2c(C)noc2C)cc1`, the activation was inactive: -4.61%. `Cc1cccc(NC(=O)Cn2c(=O)n(-c3ccccc3Cl)c(=O)c3c(C)c(C(=O)N(C)C)sc32)c1`: the activation was inactive: -7.85%.

As to `Cc1cc(C)cc(N2CC(c3nc(-c4ccccc4C)no3)CC2=O)c1` (stereo not given), the activation was inactive: -0.904%. Next, `CC(=O)Nc1c(C)nn(-c2ccccc2)c1N1CCC(C(=O)NCc2ccc(Cl)cc2)CC1`: inactive: -18.6%.

In the case of `Cc1cc(OCC(=O)NCC2(N3CCN(C)CC3)CCCCC2)cc(C)c1Cl`, the activation is inactive: -15.2%. On to `COc1ccc(-c2cc(NCc3ccc(F)cc3)n3cnnc3n2)cc1`, for which the activation is inactive: 4.24%. On to `O=c1[nH]c(=O)n([C@H]2O[C@H](CO)[C@@H](O)[C@@H]2O)cc1/C=C\Br`, for which the activation was inactive: -5.01%.

On to `O=C(Cc1ccccc1)Nc1sc2c(c1C(=O)Nc1ccccc1Cl)CCC2`, for which the activation was inactive: 18.9%. Next, `Cc1nn(CC(=O)NCCc2ccc(Cl)cc2)c(=O)c2cc3cc(F)ccc3n12`: inactive: 6.48%. With `COc1ccc(CNC(=O)Cn2nc(C)c3nn(-c4ccc(Cl)cc4)c(C)c3c2=O)cc1`, the activation was inactive: -3.19%. `CCCN1C(=O)C(Cc2nc3ccccc3c(=O)n2CC)c2ccccc21` (stereo not given): the activation was inactive: -29.5%. In the case of `CCCc1cc(N2CCN(c3cc(Cl)ccc3C)CC2)n2cnnc2n1`, the activation was inactive: 7.26%. Next, `Cc1ccc(NC(=O)CCc2nnc3n(CC(C)C)c(=O)c4ccccc4n23)cc1C`: inactive: -0.413%; `Cc1ccc(-n2nc3c(N4CCC(C(=O)N5CCCCC5)CC4)nnc(C)c3c2C)cc1`: inactive: 2.81%; `CCCOc1ccc(N2CC(C(=O)Nc3cccc(Cl)c3Cl)CC2=O)cc1` (stereo not given): inactive: -28.5%.

`Cc1ccc2oc(C(=O)Nc3c(C(=O)Nc4ccccc4)oc4ccccc34)cc(=O)c2c1`: the activation is inactive: 7.32%.

As to `O=S(=O)(c1ccccc1)c1nnn2c1nc(NCc1cccs1)c1sccc12`, the activation is inactive: 1.44%.

Regarding `Cc1ccc(NC(=O)CCn2cccn2)cc1Cl`, the activation was inactive: -2.82%.

As for `CCOc1ccc(CCNC(=O)CN2C(=O)COc3ccc(S(=O)(=O)N4CCC(C)CC4)cc32)cc1`, the activation was inactive: -8.57%.

In the case of `COc1ccc(NC(=O)Cn2c(=O)n(-c3ccccc3)c(=O)c3c4c(sc32)CCCC4)cc1`, the activation is inactive: -2.45%. Next, `Cc1ccc(NC2=CC(c3ccccc3F)N(c3ccc(C)cc3)C2=O)cc1` (stereo not given): inactive: -34.2%; `COC(=O)c1c(NC(=O)c2cc3nc(-c4ccc(OC)cc4)cc(C(F)(F)F)n3n2)sc2c1CCCC2`: inactive: -24.5%; `CCCCN(C)c1nnc(NC(=O)Nc2cccc(C(C)=O)c2)s1`: inactive: -0.924%. As for `CCOc1ccc(Cn2c(=O)oc3ccccc32)cc1`, the activation is inactive: -3.64%.

As to `Clc1cccc(CNc2ncnc3c2nc2n3CCCC2)c1`, the activation was inactive: -4.44%. With `COc1ccc(-n2ncc3c(N4CCN(c5cccc(C)c5)C(C)C4)ncnc32)cc1` (stereo not given), the activation is inactive: 30%. Take `Cc1nnc(SCc2cc(=O)n3c(C)cccc3n2)s1`: the activation was inactive: -17.6%.

Consider `O=C(C1CCC(CNS(=O)(=O)c2ccc(Br)s2)CC1)N1CCN(c2ccccc2)CC1` (stereo not given), for which the activation is inactive: 17.4%. Next, `O=C1C(=O)c2ccccc2C(O)=C1C1CCC(c2ccc(Cl)cc2)CC1` (stereo not given): inactive: 22.9%; `Cc1ccc(-c2noc(COc3ccc(Br)c(C)c3)n2)cc1`: inactive: 6.62%; `COc1ccc(Cl)cc1NC(=O)CCc1nc(-c2ccccc2F)no1`: inactive: -0.548%. For `NS(=O)(=O)c1ccc(NC(=O)CCn2c(=O)oc3ccccc32)cc1`, the activation is inactive: -4.79%.

Turning to `Cc1c(C(=O)N2CCCC2)oc2c1-c1nn(CC(=O)NCc3cccc(Br)c3)cc1CC2`, the activation was inactive: -16.9%. For `O=C(Cn1c(=O)n(Cc2ccc3c(c2)OCO3)c(=O)c2ccccc21)Nc1cccc(Cl)c1`, the activation was inactive: -27.3%.

Turning to `Cc1ccc(-n2nnc3c(sc4nc(C)c(C)cc43)c2=O)cc1Cl`, the activation is inactive: -1.43%. `COc1ccc(CSc2nc3ncccc3[nH]2)cc1`: the activation was inactive: 9.12%. As for `Cc1ccc(C)c(NC(=O)C2CCCN(S(=O)(=O)c3c(C)noc3/C=C/N(C)C)C2)c1` (stereo not given), the activation was inactive: -22.4%. Consider `Cn1c(=O)oc2cc(S(=O)(=O)CCC(=O)NCc3ccccc3)ccc21`, for which the activation is inactive: 12.1%. `CCOc1ccc(N(C)S(=O)(=O)c2ccc3c(c2)C(C)(C)C(=O)N3C)cc1`: the activation was inactive: 29.6%.

(Values after PubChem BioAssay AID1346428 (National Center for Advancing Translational Sciences (NCATS), 2018).)
